# In PubChem BioAssay AID2675 (National Center for Advancing Translational Sciences (NCATS), 2010):
# The whole screen tested about 280,000 compounds, of which about 100 (0.036%) were called active. Inconclusive means that the source gave no clear call. Such entries were picked first, then a sample of the others. The call rests on the fitted dose curve; in most records, active means well fitted inhibition curve with a large enough effect in the signal ratio, with a control signal flat (not every such curve was filed as active); inconclusive means small, poorly fitted or top-dose-only effect, or effect the other way, or a change in a side signal; inactive means no such curve, though single readings can be large or run the other way; the % refers to the signal ratio. A potency beside an inconclusive call is a rough fit, not a confirmed value. “Side channel” marks fits to a control or component signal instead of the main read-out.
# Target: Muscleblind-like protein 1 (Homo sapiens) (UniProt Q9NR56)
# Assay: qHTS Assay for Inhibitors of MBNL1-poly(CUG) RNA binding
# Conditions: TR-FRET MBNL1-His/biotin-(CUG)12 binding, 665/545 ratio; series mostly up to 57.5 µM
# Outline: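 TR-FRET between His-tagged MBNL1 and biotin-(CUG)12 RNA, detected with Tb anti-His antibody (0.055 ng/ul) and streptavidin-XL665 (5 nM), 60 min at room temperature. Compounds titrated 92 nM to 58 uM; 665/545 nm ratio normalized to buffer and complex controls.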
# Potency means the concentration at half of the fitted maximal effect; tags describe the fitted curve by direction and shape or compound fluorescence and quenching.
# Chain of UniProt Q9NR56 (Q9NR56 whole entry, looked up): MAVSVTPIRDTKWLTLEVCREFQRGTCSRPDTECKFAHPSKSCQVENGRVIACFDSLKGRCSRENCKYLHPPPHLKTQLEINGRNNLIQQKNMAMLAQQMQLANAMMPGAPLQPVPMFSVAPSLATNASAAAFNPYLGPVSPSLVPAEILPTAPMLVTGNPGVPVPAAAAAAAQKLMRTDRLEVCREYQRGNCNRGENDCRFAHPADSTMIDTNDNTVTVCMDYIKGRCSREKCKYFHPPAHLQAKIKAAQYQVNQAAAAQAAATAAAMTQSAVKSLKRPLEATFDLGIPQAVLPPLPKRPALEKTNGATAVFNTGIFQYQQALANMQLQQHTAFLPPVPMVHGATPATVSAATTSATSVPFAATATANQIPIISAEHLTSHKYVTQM
row,Compound,Potency
1,COc1cc(/C=N/NC(=O)c2csc3c2CCCC3)ccc1OCCN1CCOCC1,"inconclusive: 25.1 µM [quencher, side channel, single point]"
2,O=C(Nc1nc2ccccc2n1Cc1ccc(Cl)cc1)c1ccco1,inactive
3,O=C(CN1C(=O)/C(=C/c2cccc(Cl)c2)SC1=S)NC1C=CS(=O)(=O)C1 (centres undefined),"inconclusive: 11.2 µM [quencher, side channel, partial curve]"
4,COc1ccc([N+](=O)[O-])cc1C(=O)Nc1ccc(Cc2ccncc2)cc1,"inconclusive: 2.24 µM [quencher, side channel, full curve]"
5,COCc1[nH][nH]c(=O)c1C=NCC(=O)OC,"inconclusive: 28.2 µM [fluorescent, side channel, single point]"
6,Cn1c(N=Nc2ccccc2)nc2ccccc21,"inconclusive: 44.7 µM [quencher, side channel, partial curve, poor fit]"
7,O=C(c1ccc2c3c(cccc13)CC2)C1CCCN(C(=O)c2ccc[n+]([O-])c2)C1 (centres undefined),"inconclusive: 39.8 µM [quencher, side channel, single point]"
8,Cc1cccc(N2CCN(C(=O)C3CCCN(S(=O)(=O)c4cnc[nH]4)C3)CC2C)c1 (centres undefined),"inconclusive: 39.8 µM [quencher, side channel, single point]"
9,COc1cc(OC)cc(-c2ncc3ccccn23)c1,"inconclusive: 44.7 µM [quencher, side channel, partial curve]"
10,NC(=O)CSc1nnc(-c2ccc([N+](=O)[O-])cc2)o1,"inconclusive: 14.1 µM [quencher, side channel, partial curve]"
11,COC(=O)C1C(=O)c2c([nH]c(C(=O)OC3CCCCCC3)c2C)CC1C (centres undefined),inactive
12,Cn1c(-c2ccccc2)c(CCO)c2ccccc21,"inconclusive: 63.1 µM [inhibitor, single point]"
13,COc1ccc2[nH]c(=O)c(CNc3cccc(C)c3)cc2c1,"inconclusive: 12.6 µM [quencher, side channel, partial curve]"
14,CC(C)OCCCN1CC(=O)N2C(c3ccccc3)c3[nH]c4ccccc4c3C[C@H]2C1=O (some centres undefined),inactive
15,O=C(c1ccc([N+](=O)[O-])s1)N1CCN(c2ccc(C(F)(F)F)cn2)CC1,"inconclusive: 2.82 µM [quencher, full curve]"
16,Cc1ccc(-c2nnc(Nc3ccc(CC(N)=O)cc3)c3ccccc23)cc1S(N)(=O)=O,"inconclusive: 15.8 µM [quencher, partial curve]"
17,Cc1ccc(N2C(=O)c3ccccc3C2=O)nc1,"inconclusive: 28.2 µM [quencher, side channel, partial curve]"
18,O=C(c1ccc([N+](=O)[O-])cc1)c1cc2ccc(O)cc2oc1=O,"inconclusive: 3.98 µM [quencher, partial curve]"
19,C/C(=N\NC(=O)C1CCCN(S(=O)(=O)c2ccccc2)C1)c1ccccn1 (centres undefined),inactive
20,CCOC(=O)C1(Cc2cccc(OC)c2)CCN(Cc2cccnc2)CC1,"inconclusive: 20 µM [quencher, side channel, partial curve]"

row,Compound,Potency
1,Cc1cc(C)c(S(=O)(=O)/N=C2/C=C(Sc3ncn[nH]3)C(=O)c3ccccc32)cc1C,"inconclusive: 14.1 µM [quencher, side channel, partial curve]"
2,CC1=CC(C)(C)Nc2ccc(OC(=O)c3ccco3)cc21,inactive
3,Cn1cc([N+](=O)[O-])c(C(=O)N/N=C/c2ccccc2)n1,"inconclusive: 28.2 µM [quencher, side channel, partial curve]"
4,CCC(c1nnnn1C(C)(C)CC)N(CCCN1CCOCC1)Cc1cc2cccc(C)c2[nH]c1=O (centres undefined),"inconclusive: 20 µM [quencher, side channel, single point]"
5,CC(C)Nc1c([N+](=O)[O-])c(=O)oc2ccccc12,"inconclusive: 20 µM [quencher, side channel, single point]"
6,O=[N+]([O-])c1cc(CN2CCCC2)ccc1Sc1ccc(Cl)cc1,"inconclusive: 15.8 µM [quencher, side channel, partial curve]"
7,COc1ccc(CCNC(=S)Nc2ccc(C)cc2C)cc1,inactive
8,c1ccc(CNc2ccc3c(c2)ncn3C2CCCCC2)nc1,"inconclusive: 3.55 µM [quencher, side channel, full curve, poor fit]"
9,Cc1ccc(-c2cc3nc(-c4ccccc4)cc(N)n3n2)cc1,"inconclusive: 25.1 µM [fluorescent, side channel, partial curve]"
10,O=C(O)c1ccc2c(=O)n3c(nc2c1)/C(=C/c1ccc(Cl)cc1Cl)CC3,"inconclusive: 31.6 µM [quencher, side channel, partial curve]"
11,CCOc1cccc(NC(=O)CSc2nc(C)c3c(c2C#N)CCCC3)c1,"inconclusive: 5.01 µM [fluorescent, side channel, full curve]"
12,COc1ccc(-c2cc(C)no2)cc1S(=O)(=O)NCCCN1CCCCCC1,"inconclusive: 50.1 µM [inhibitor, single point]"
13,O=C(Nc1ccc(Br)cn1)c1cccc(C(=O)Nc2ccc(Br)cn2)c1,inactive
14,O=C(NC(=S)Nc1nc(-c2cccc3ccccc23)cs1)c1cc2ccccc2o1,inactive
15,CCOc1ccc(CC(=O)N2CCN=C2SCc2ccc([N+](=O)[O-])cc2)cc1,"inconclusive: 28.2 µM [quencher, side channel, single point]"
16,C/C(=N\NC(=O)c1ccc(CSc2nncn2C)cc1)c1cccs1,"inconclusive: 44.7 µM [quencher, side channel, partial curve, poor fit]"
17,Cc1cc2cc(C=C(C#N)C#N)c(Cl)nc2cc1C,"inconclusive: 12.6 µM [quencher, side channel, partial curve]"
18,C=CCn1c(O)c(N=NC(=O)CNC(=O)c2cccs2)c2ccccc21,"inconclusive: 10 µM [quencher, side channel, partial curve]"
19,CC(C)C[C@@H](CO)N1CCN(Cc2ccc([N+](=O)[O-])cc2)CCC1=O,"inconclusive: 25.1 µM [quencher, single point]"
20,Cc1cc(C(=O)N/N=C/c2ccccc2[N+](=O)[O-])c(C)o1,"inconclusive: 44.7 µM [quencher, side channel, partial curve, poor fit]"

row,Compound,Potency
1,Cc1cc([N+](=O)[O-])nn1CC(=O)N/N=C/c1ccccc1F,"inconclusive: 39.8 µM [quencher, side channel, partial curve]"
2,COc1ccc(C2C(C(=O)/C=C/c3ccco3)=C(O)C(=O)N2CCN2CCOCC2)cc1OC (centres undefined),"inconclusive: 14.1 µM [quencher, side channel, partial curve]"
3,CCOC(=O)C(CC)/C(C)=N\NC(=O)c1ccccc1O (centres undefined),inactive
4,CCOc1ccc(NC(=O)Nc2ccc3nccnc3c2)cc1,"inconclusive: 14.1 µM [quencher, side channel, partial curve]"
5,O=C(OCC(=O)N1CCN(S(=O)(=O)c2ccccc2)CC1)c1ccc([N+](=O)[O-])o1,"inconclusive: 14.1 µM [quencher, side channel, partial curve]"
6,CC(C)Oc1ccc(CNC(=O)Cn2ccc3cc(S(=O)(=O)N4CCCC4)ccc32)cc1,inactive
7,O=C(c1ccc(COc2ccccc2Cl)o1)N1CCCC1,"inconclusive: 39.8 µM [inhibitor, single point]"
8,OCCN(/C=N/c1nc(-c2ccc(Br)cc2)cs1)CCO,"inconclusive: 20 µM [quencher, side channel, partial curve]"
9,Cc1nc(SCC(=O)Nc2cc(Cl)ccc2[N+](=O)[O-])nc(C)c1C,"inconclusive: 11.2 µM [quencher, side channel, partial curve, poor fit]"
10,O=C(CCNc1cccc(C(F)(F)F)c1)c1ccco1,inactive
11,CCn1c2ccc(C)cc2c2n[nH]c(=S)nc21,"inconclusive: 14.1 µM [quencher, side channel, partial curve]"
12,O=C(N/N=C/c1ccncc1)c1cc(-c2ccc(Br)s2)[nH]n1,"inconclusive: 28.2 µM [quencher, side channel, partial curve]"
13,CN(C)/C=C1\Oc2ccc3ccccc3c2C1=O,"inconclusive: 15.8 µM [quencher, side channel, partial curve]"
14,COc1cc(/C=N/NS(=O)(=O)c2ccc3ccccc3c2)ccc1OCCN1CCOCC1,"inconclusive: 2.51 µM [quencher, side channel, partial curve, poor fit]"
15,O=C(NCCc1ccc(Cl)cc1)C1CCC(CNc2nc(=S)[nH]c3ccccc23)CC1 (centres undefined),inactive
16,CCOc1ccc(C2C3=C(CCCC3=O)N(CC(=O)O)C3=C2C(=O)CCC3)cc1,"inconclusive: 15.8 µM [quencher, side channel, partial curve]"
17,Nc1nc(NCCO)nc(NCc2ccccc2)c1[N+](=O)[O-],"inconclusive: 8.91 µM [quencher, side channel, partial curve]"
18,Cc1ccc2sc(-c3ccc(NC(=O)CCN4C(=O)c5ccccc5C4=O)cc3)nc2c1,"inconclusive: 0.316 µM [fluorescent, side channel, full curve]"
19,CCN(CC)c1ccc(/C=N/NC(=O)Cc2ccc(OC)c(OC)c2)cc1,"inconclusive: 39.8 µM [quencher, single point]"
